# Source: PubChem BioAssay AID686978 (National Center for Advancing Translational Sciences (NCATS), 2013)
# The campaign covered roughly 420,000 compounds. About 64,000 (15%) were called active. This list was built around the results that the source calls inconclusive (neither active nor inactive); the mix of calls is not that of the screen. Calls come from the whole dose curve; as a rule, active = well fitted inhibition curve with a large enough effect; inconclusive = small, poorly fitted or top-dose-only effect; inactive = flat fitted curve, though single readings scatter. Potencies of inconclusive entries are left out as doubtful fits.
# Test: qHTS for Inhibitors of human tyrosyl-DNA phosphodiesterase 1 (TDP1): qHTS in cells in absence of CPT; note: nearly all actives have a fitted effect of over 55% in size
# Settings: DT40 Tdp1-/- hTDP1 cells, no CPT, ATP luminescence, 48 h; activity change, negative = growth inhibition: at 46.2 µM (top of the series) unless noted
# Method in brief: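 Cells were dispensed at 400 per well, compounds added by pin tool, plates incubated ≥48 hr at 37 °C, then CellTiter-Glo added for 30 min at room temperature before luminescence reading. Line: DT40 Tdp1-/- complemented with hTDP1; camptothecin omitted.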
# % is set by controls: 0 for no effect and ±100 for the full control effect; potency is the fitted concentration of half-maximal effect; tags give direction and shape of the fitted curve.
SMILES,Potency,"activity change, negative = growth inhibition"
CCOc1ccccc1NC(=O)c1ccc2c(=O)n3c(nc2c1)CCCCC3,"inconclusive [inhibitor, partial curve, poor fit]",–
Cc1ccc(S(=O)(=O)CCC(=O)Nc2nc(-c3ccccn3)cs2)cc1,active: 5.8 µM,–
COCCNC(=S)N1CCN(c2nc3ccccc3s2)CC1,–,inactive: 4.41%
O=C(NNc1ccc([N+](=O)[O-])cn1)Nc1ccc(N=Nc2ccccc2)cc1,"inconclusive [inhibitor, single point]",–
COc1ccc(N2CCN(C(CNC(=O)c3ccc(OC)c(OC)c3)c3cccnc3)CC2)cc1 (stereo not given),"inconclusive [inhibitor, single point]",–
O=C(NCCc1ccc(Cl)cc1)C1CCN(c2cnccn2)CC1,"inconclusive [inhibitor, single point]",–
Cn1cccc1C(=O)N1CCC2(CC1)CN(C(=O)Nc1cccc(F)c1)C2,"inconclusive [inhibitor, single point]",–
Cc1cccc(N2CCN(C(=O)/C=C/c3cccs3)CC2)c1C,"inconclusive [inhibitor, partial curve]",–
CC1CCCC(NC(=O)C2CCN(S(=O)(=O)N3CCOCC3)CC2)C1C (stereo not given),–,inconclusive: -33.6% [inhibitor]
COc1ccc(C(CNC(=O)c2ccc(-n3cnnn3)cc2)N2CCOCC2)cc1 (stereo not given),"inconclusive [inhibitor, single point]",–
COc1ccc2nc(NC(=O)CSc3nc4cccnc4n3C)sc2c1,"inconclusive [inhibitor, partial curve]",–
O=C(CCCN1C(=O)/C(=C/c2ccco2)SC1=S)Nc1ccccc1C(=O)O,"inconclusive [inhibitor, single point]",–
Cc1ccc(C(=O)C(C)OC(=O)c2ccccc2[N+](=O)[O-])cc1 (stereo not given),"inconclusive [inhibitor, single point]",–
COc1ccc(C(=O)NC2CCCc3ccccc32)cc1 (stereo not given),"inconclusive [inhibitor, single point]",–
COCCN(CC(=O)Nc1cccc(C)c1C)C(=O)Cc1cccs1,–,inactive: 21.5%
COc1ccc(S(=O)(=O)Nc2ccc(NC(C)=O)cc2)cc1OC,–,inactive: -14%
Cc1ccc(Nc2ncccc2C(=O)NCc2cccs2)c(C)c1,"inconclusive [inhibitor, single point]",–
Cc1cn(CCC(=O)Nc2ccccc2N2CCOCC2)c2ccccc12,"inconclusive [inhibitor, partial curve]",–
Cc1ccc2nc(CNC(=O)c3cc(NC(=O)c4ccccc4)cc4ncn(C5CCCC5)c34)cn2c1,–,inactive: -15.1%
Cc1c(Cl)cnc(NC(=O)COC(=O)c2cccc(S(=O)(=O)N3CCOCC3)c2)c1Cl,–,inactive: -2.54%
Cc1ccsc1C(=O)Nc1nnc(-c2ccco2)o1,–,inactive: -109%
CN(C)C(=O)CCc1ccc2c3c([nH]c2c1)[C@]1(CCC2CCCC2)[C@@H](C(=O)N2CCOCC2)C[C@H](CC(=O)NCC24CC5CC(CC(C5)C2)C4)C(=O)N1CC3,active: 23.1 µM,–
COc1cc(CNc2ncnc3c2ncn3[C@H]2CN(CCc3ccccc3)C[C@@H](CO)O2)cc(OC)c1OC,"inconclusive [inhibitor, partial curve]",–

SMILES,Potency,"activity change, negative = growth inhibition"
O=C(Nc1ccc(Cl)cc1)c1ccc2nsnc2c1,"inconclusive [inhibitor, partial curve]",–
Cn1cc(Br)c(C(=O)N/N=C/c2cccc(OC3CSC3)c2)n1,"inconclusive [inhibitor, partial curve, poor fit]",–
CCCC#Cc1ccc2c(c1)O[C@H](CN(C)C(=O)CC1CC1)[C@H](C)CN([C@@H](C)CO)S2(=O)=O,active: 18.4 µM,–
Cc1nc(NC(=O)COC(=O)CNC(=O)c2ccco2)c(Cl)cc1Cl,–,inactive: -0.794%
CCCOC(=O)c1c(NC(=O)c2cnn3c2NC(c2ccccc2)CC3C(F)(F)F)sc2c1CCCC2 (stereo not given),"inconclusive [inhibitor, single point]",–
COC(=O)c1sccc1NC(=O)c1c(-c2ccccc2)noc1C,–,inactive: 1.59%
S=C(Nc1ccc2nsnc2c1)NC1CCCCC1,"inconclusive [inhibitor, partial curve]",–
COc1ccc(OC)c(NC(=O)C23CCC(C)(C(=O)C2)C3(C)C)c1 (stereo not given),–,inactive: -0.366%
COc1cc(/C=C(\C#N)c2nnc(N3CCOCC3)n2-c2ccccc2)ccc1O,"inconclusive [inhibitor, single point]",–
O=C(O)CSc1nnc(-c2ccccc2)c(-c2ccccc2)n1,"inconclusive [inhibitor, single point]",–
Cc1ccc(-c2nc(CSc3nnc(C)n4c3cc3occc34)c(C)o2)cc1,–,inconclusive: -30.2% [inhibitor]
COC(=O)c1ccc2nc(-c3ccc(F)cc3)c(Cc3ccccc3C(F)(F)F)n2c1,–,inactive: -22.7%
Cc1ccc(NC(=O)CN(Cc2ccccc2)S(=O)(=O)c2ccc3nc(C)sc3c2)c(C)c1,"inconclusive [inhibitor, single point]",–
Nc1ccc(SCCN2C(=O)c3ccccc3C2=O)cc1,–,inactive: -11%
Cc1ccc(-n2c(C)cc(C=C(C#N)C#N)c2C)cc1,"inconclusive [inhibitor, single point]",–
Cn1c(=O)c2c(nc(N/N=C/c3cccs3)n2Cc2ccccc2)n(C)c1=O,active: 23.1 µM,–
CC(=O)Nc1ccc(NC(=O)c2ccccc2C)cc1,–,inactive: 5.65%
CCN(CCn1cccn1)C(=O)c1cc(COc2ccccc2SC)on1,"inconclusive [inhibitor, single point]",–
NC(=O)c1ccsc1NC(=O)COC(=O)CCCOc1ccccc1,"inconclusive [inhibitor, single point]",–
CCOC(=O)C1=C(COC(=O)c2cc(S(=O)(=O)N3CCOCC3)ccc2F)NC(=O)NC1C (stereo not given),–,inactive: -6.18%
COc1ccc(CNC(=O)CNS(=O)(=O)c2cccs2)cc1,–,inactive: 10.2%
CC(C)Cn1cc(NC(=O)N2CCN(c3cccc(C(F)(F)F)c3)CC2)c2ccccc2c1=O,active: 16.4 µM,–
